About 1,600 (39%) of roughly 4,100 compounds were called active. The inconclusive results got no clear call from the source; some entries with a clear call stand among them for comparison. Calls follow the shape of the dose curve; as a rule, active = well fitted inhibition curve with a large enough effect; inconclusive = small, poorly fitted or top-dose-only effect; inactive = no such curve, though single readings can be large or run the other way. Potencies beside an inconclusive call are fits to weak or partial responses and may not hold up.
Assay: qHTS Validation assay for Inhibitors of Plasmodium falciparum Dd2 growth in vitro; also: nearly all actives have a fitted effect of over 70% in size
Conditions: P. falciparum Dd2 in RBCs, SYBR Green growth, 72 h; series mostly up to 28.7 µM; activity change, negative = inhibition: at the top concentration
Method in brief: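 P. falciparum Dd2-infected red blood cells (2.5% hematocrit, 0.3% parasitemia) grown 72 h at 37 °C under 5% O2 with compounds in a titration, 29 uM to 0.5 nM final. Growth read as SYBR Green-1 fluorescence after ~16 h lysis; artesunate 300 nM as positive control.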
% is scaled to controls: 0 for no effect and ±100 for the full control effect; potency is read from the fitted curve at half-maximal effect; tags tell the direction and shape of the fitted curve.

Structure (SMILES) | Potency | activity change, negative = inhibition
CCC(CC)c1cc([C@H]2CN3CC[C@H]2C[C@@H]3CNS(=O)(=O)c2cccs2)nc(-c2ccncc2)n1 | active: 2.37 µM | –
Cc1ccc(C(=O)N2[C@H]3CC[C@@H]2c2cnc(-c4ccccc4)nc2C3)cn1 | – | inactive: -30.1%
O=C(Cc1cccc(Cl)c1)N1[C@H]2CC[C@@H]1c1cnc(-c3ccccc3)nc1C2 | inconclusive: 18.8 µM [inhibitor, partial curve, poor fit] | –
COc1cc2c(cc1OC1CCCC1)NC(=O)C21CCN(Cc2nccs2)CC1 | inconclusive: 19.3 µM [inhibitor, partial curve] | –
COc1cc(C2NCc3ccccc3-n3cccc32)ccc1O (stereo not given) | active: 2.66 µM | –
Cn1nc(C2CCCCC2)cc1[C@H]1CN2CC[C@H]1C[C@@H]2CNC(=O)COc1ccccc1 | inconclusive: 15 µM [inhibitor, partial curve] | –
CC(C)CCn1c(N)c(C(=O)NCc2cccs2)c2nc3ccccc3nc21 | inconclusive: 21.1 µM [inhibitor, single point] | –
CCOc1cc(CNC(C)C(O)c2ccccc2)cc(Cl)c1OCC (stereo not given) | inconclusive: 2.11 µM [inhibitor, full curve, poor fit] | –
COc1cc2c(cc1OCc1ccncc1)NC(=O)C21CCN(Cc2ccccc2O)CC1 | inconclusive: 21.1 µM [inhibitor, single point] | –
CC(C(=O)c1c[nH]c2ccccc12)N1CCN(C(=O)c2ccco2)CC1 (stereo not given) | active: 5.96 µM | –
O[C@H]1[C@H](NCC2CCCC2)[C@@H](c2ccccc2)C[C@H]1O | active: 6.11 µM | –
C=CC1CN2CCC1CC2C(OC(C)=O)c1ccnc2ccc(OC)cc12 (stereo not given) | active: 1.68 µM | –
CC(C)(C)c1ccc(NC(=O)OC[C@H]2C[C@@H]3CCN2C[C@@H]3c2cc(C3CCCC3)nc(-c3ccncc3)n2)cc1 | active: 2.11 µM | –
CC1CCN(CC2CCCCCN2C(=O)Cc2ccccc2)CC1 (stereo not given) | inconclusive: 9.44 µM [inhibitor, partial curve] | –
Cc1ccccc1CN1C(=O)C(C)N=C(c2ccccc2)c2ccccc21 (stereo not given) | inconclusive: 15 µM [inhibitor, partial curve] | –
CC(C)CN1Cc2ccccc2-n2ccnc2C12CCN(C(=O)c1ccccn1)CC2 | inconclusive: 21.1 µM [inhibitor, partial curve, poor fit] | –
COc1cc2c(cc1Oc1ccccc1)NC(=O)C21CCN(C(=O)c2ccccc2)CC1 | – | inactive: 9.16% [at 43.1 µM]
Cc1nc(-c2ccco2)cc([C@H]2CN3CC[C@H]2C[C@@H]3CNC(=O)C2CCC2)n1 | inconclusive: 34.4 µM [inhibitor, single point] | –
COc1ccc(C(=O)C2CCCN(Cc3cccc(C)n3)C2)c(OC)c1 (stereo not given) | inconclusive: 23.7 µM [inhibitor, single point] | –
C=C1C(=O)O[C@@H]2C[C@@H](C)[C@@H]3C=CC(=O)[C@@]3(C)[C@@H](OC(=O)CC(=O)O[C@H]3[C@@H]4C(=C)C(=O)O[C@@H]4C[C@@H](C)[C@@H]4C=CC(=O)[C@]43C)[C@H]12 | inconclusive: 1.68 µM [inhibitor, full curve, poor fit] | –
COc1cc2c(cc1OCc1ccccc1)NC(=O)C21CCN(Cc2cccc(O)c2)CC1 | inconclusive: 21.1 µM [inhibitor, single point] | –
Cn1nccc1CN1CCC2(CC1)C(=O)Nc1ccccc12 | – | inactive: -13.6% [at 43.1 µM]
Cc1c2ccncc2c(C)c2c1[nH]c1ccccc12 | active: 3.35 µM | –
Oc1c(Cl)cc(Cl)cc1CN1CCN(Cc2ccccc2)CC1 | active: 0.668 µM | –
COc1cc2c(cc1OCc1cccnc1)N(C(=O)Cc1cccc(Cl)c1)CC21CCN(CC(=O)O)CC1 | inconclusive: 16.8 µM [inhibitor, single point] | –
